# According to the supplement of paper PMC12217912:
# Some of the results follow. The full chains were built here from the parent and the listed change. Inactive controls read about 0.05.
# B1: TEV protease; numbered along this chain (parent)
# chain: MGESLFKGPRDYNPISSSICHLTNESDGHTTSLYGIGFGPFIITNKHLFRRNNGTLVVQSLHGVFKVKDTTTLQQHLVDGRDMIIIRMPKDFPPFPQKLKFREPQREERICLVTTNFQTKSMSSMVSDTSCTFPSGDGIFWKHWIQTKDGQCGSPLVSTRDGFIVGIHSASNFTNTNNYFTSVPKNFMELLTNQEAQQWVSGWRLNADSVLWGGHKVFMVKPEEPFQPVKEATQL
# Variants of: B1
# Test: raw area under fraction-flipped curve 0-4 h after induction (AUC4h, not background-subtracted), DNA-recorder readout of cleavage of the substrate (dimensionless); higher = more cleavage of the substrate by the protease variant
# Conditions: temperature: 34 °C; time window: 0-4 h after rhamnose induction
# Protocol: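 In vivo DNA recorder in E. coli TOP10(DE3) ΔrhaA at 34 °C. Each TEVp single-site mutant (parent TEVp 0) is paired with a single-site variant of the 7-mer TEVs (canonical ENLYFQ|S). The substrate sits between flexible linkers in a Bxb1-sfGFP-TEVs-SsrA fusion, so cleavage stabilises Bxb1 and speeds flipping of a recombination array, read by NGS. The value is the raw area under the fraction-flipped curve over 0-4 h after rhamnose induction (AUC4h), with ≥20 reads per time point. It is not background-subtracted; inactive controls average about 0.047.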
# 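Also: Bxb1 expression induced with 0.2% (w/v) L-rhamnose at OD600 near 0.5, cultures sampled hourly, flipped fraction per protease–substrate barcode pair counted by paired-end Illumina sequencing.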
Variant,area with substrate ENLYFAS,area with substrate ENLYFCS,area with substrate ENLYFES,area with substrate ENLYFFS,area with substrate ENLYFGS,area with substrate ENLYFHS,area with substrate ENLYFIS,area with substrate ENLYFKS,area with substrate ENLYFLS,area with substrate ENLYFMS,area with substrate ENLYFNS,area with substrate ENLYFPS,area with substrate ENLYFRS,area with substrate ENLYFSS,area with substrate ENLYFTS,area with substrate ENLYFVS,area with substrate ENLYFYS,area with substrate ENLYFWS,area with substrate ENLYFDS
N53A,0.0586,0.0657,0.0272,0.0741,0.0674,0.06,0.0569,0.0742,0.0594,0.0508,0.0626,0.0571,0.0674,0.0608,0.0672,0.0679,0.0578,–,–
H21S,0.0492,0.0643,0.0569,0.0633,0.0591,–,0.0678,0.0633,0.0642,0.0737,0.0777,0.0373,0.0532,–,0.0632,0.0575,0.0445,–,–
D11K,0.0529,0.0714,0.0591,0.0406,0.0471,–,0.0701,0.0527,–,0.0679,–,0.0658,–,0.0501,0.0577,–,0.0482,0.0533,–
V217N,0.0581,0.0526,0.0531,0.068,–,–,0.0451,0.0544,–,0.071,0.0693,0.0512,–,0.0571,0.0555,–,0.0356,–,0.0621
G63I,0.0071,0.0584,0.0536,–,–,0.0551,0.0488,0.0565,–,–,–,0.0499,0.0492,–,–,0.0321,–,–,0.0681
T233S,0.0541,–,0.0604,0.0668,0.0585,–,0.0497,0.0684,–,0.0577,0.0692,0.0527,0.0676,0.0528,0.056,0.0683,–,0.0592,0.0581
S60V,0.0573,0.0505,0.0604,0.0619,–,0.0316,0.0454,0.0471,0.0617,0.0592,0.0573,0.0599,0.0482,0.0565,0.0504,0.0484,0.0517,0.0467,0.0533
H29W,0.0547,0.0563,0.0651,0.0612,0.0608,0.0589,0.0569,–,0.0575,0.0807,–,–,0.0595,0.0603,–,–,0.0436,0.058,0.0634
W212M,0.0619,–,0.0787,0.0681,0.0585,0.0591,0.0483,–,–,0.0774,–,0.0645,0.0524,–,0.0394,–,0.0567,0.0531,0.0598
K98Q,0.0553,–,0.0689,–,0.0507,0.0537,0.0647,–,–,0.0674,0.0693,0.0616,–,–,0.0454,–,0.0509,–,0.0401
V183I,0.0603,–,0.0626,0.0752,–,0.0723,0.044,0.0509,0.0469,0.0519,0.0605,0.0245,0.0388,–,0.0628,0.0678,0.0566,0.0544,–
T192P,0.0585,0.0641,0.0683,0.0678,–,0.0452,0.058,0.0667,0.0658,–,0.0573,0.0393,0.0663,–,0.0609,0.061,–,0.0577,–
G202V,0.0526,–,0.0579,0.0669,–,0.0454,0.0549,0.0632,–,0.0507,–,0.0621,–,–,0.053,–,–,–,0.0723
P134E,0.0661,0.0561,0.0567,0.0621,0.067,–,0.0609,0.0768,0.0563,0.0591,0.0615,0.0562,–,–,–,0.0651,–,0.0591,0.059
F92T,0.0461,–,0.0571,0.0648,–,0.0711,0.0489,–,–,0.0591,–,0.0634,0.0547,0.0686,0.031,0.0165,0.0467,–,–
I86R,0.0415,0.0537,–,0.0512,0.0223,0.0203,0.0396,–,–,0.0418,–,0.0396,0.0226,0.0399,0.0414,–,–,0.0332,–
D79L,0.0236,0.0543,0.0587,0.0741,0.0529,–,0.03,–,–,0.0738,0.0701,0.0603,0.0706,0.0348,–,0.0415,0.0589,–,–
V78A,0.0534,0.0574,0.051,0.0744,–,0.0508,0.0602,0.0642,0.044,0.0602,0.0577,0.0643,0.0697,–,0.0767,0.0532,0.0618,0.0573,0.0653
V113D,0.0554,–,0.0714,0.0527,–,–,0.0444,0.0604,–,0.0492,0.0617,0.0525,0.0486,0.071,0.0454,0.0438,0.0351,0.0563,–
S123T,0.0489,0.0572,0.0532,–,0.0738,–,0.0776,0.0569,–,0.0576,0.071,0.0608,–,0.0634,–,–,0.0661,0.041,–
E103Y,0.0494,0.0569,0.0553,–,–,0.0469,0.0548,–,–,–,–,0.0823,–,–,–,–,–,0.0391,–
D27V,0.0501,0.0647,0.0595,–,0.0476,–,0.0476,0.0808,0.0739,0.0561,0.0589,–,–,–,0.0633,0.0605,–,0.0536,0.0601
H47R,0.0671,–,0.0548,–,–,0.0461,0.052,0.0659,–,0.045,0.0637,0.063,0.0489,0.0447,0.0617,–,–,0.0479,–
I86F,0.0627,–,0.0615,0.0661,–,0.0575,0.0584,0.0626,0.0593,0.049,0.056,0.0605,–,–,0.0542,0.0553,0.0909,0.0487,0.053
V126G,0.0603,–,0.0611,0.0694,–,0.0628,0.0139,0.0644,–,–,0.0636,0.0678,0.067,0.0539,0.049,0.055,–,0.0488,–
I19Q,0.0724,0.0457,0.0567,0.0674,0.0506,0.0802,0.0536,0.0629,0.0368,0.0646,0.0566,0.0634,–,–,0.0473,0.0502,–,–,0.0419
